Measurements: PubChem BioAssay AID761 (NMMLSC, 2007)
The campaign covered roughly 190,000 compounds. About 400 (0.21%) were called active. This list was built around the results that the source calls inconclusive (neither active nor inactive); the mix of calls is not that of the screen.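 Rule for the calls: active = percent activity GTP binding at least 20 points away from the 100% baseline, either down as inhibitor or up as activator; inconclusive = compound flagged as likely green fluorescent from well-wide comparison; inactive = the rest.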

target: Cell division control protein 42 homolog (Homo sapiens) (UniProt P60953); test: wildtype Cdc42 fluorescent GTP binding changes, either direction – biochemical, multiplex bead flow cytometry, Bodipy-GTP, primary screen (AID 761); settings: GST-Cdc42 beads, at 10 µM, actives lie on both sides;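 note: median bead fluorescence of bound Bodipy-FL-GTP at 100 nM; 0% = excess unlabeled GTP control and 100% = no compound control; below 100% means less GTP binding so inhibitor and above means activator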
Chain of UniProt P60953 (P60953 whole entry, looked up): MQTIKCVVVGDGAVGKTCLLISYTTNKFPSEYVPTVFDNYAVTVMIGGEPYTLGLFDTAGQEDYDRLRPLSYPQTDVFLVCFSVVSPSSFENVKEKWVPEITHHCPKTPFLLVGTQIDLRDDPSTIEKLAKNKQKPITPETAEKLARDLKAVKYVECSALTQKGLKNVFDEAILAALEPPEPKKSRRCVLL

| Structure (SMILES) | percent activity (GTP binding) |
| --- | --- |
| Cc1ccc(C)c(NC(=S)N(Cc2ccc(Cl)cc2)Cc2ccc(C(=O)O)cc2)c1 | inactive: 99% |
| NC(=O)c1ccccc1NC(=O)/C=C/c1cccc(Cl)c1 | inconclusive: 108% |
| COc1ccc(-c2nc(CSCC(=O)NCc3ccc4c(c3)OCO4)c(C)o2)cc1 | inconclusive: 105% |
| Cc1nc2nc[nH]n2c(=O)c1C/C=C/c1ccccc1 | inactive: 89% |
| Cc1ccc([N+](=O)[O-])cc1NC(=O)c1ccc(C(C)(C)C)cc1 | inconclusive: 107% |
| CC(SC(=S)N(C)Cc1cccs1)C(=O)O (centres undefined) | active: 168% [activator] |
| COC(=O)Nc1[nH]ncc1[N+](=O)[O-] | inactive: 93% |
| COc1ccc(CSC(=N)N)cc1[N+](=O)[O-] | inconclusive: 104% |
| CCOC(=O)Cn1cc(C(=O)C2CC2)c2ccccc21 | inconclusive: 92% |
| Cc1ccc(O)c(C(CC(=O)NC2CCCCC2)c2ccccc2)c1 (centres undefined) | inactive: 99% |
| CCOc1cc(/C=N/NC(=O)c2cc(-c3cccnc3)nc3ccccc23)ccc1O | inactive: 83% |
| CCCCOC(=O)Nc1nc2ccc(OC)cc2s1 | inconclusive: 106% |
| COc1ccc(-c2[nH]nc3oc(=O)cc(C)c23)cc1 | inconclusive: 103% |
| CC(C)NC(=S)NN=C1CCCCCCCCCCC1 | inactive: 93% |
| S=C(NCc1cccs1)Nc1cccc(Cl)c1 | inconclusive: 105% |
| COc1ccc(C(=O)N/C(=C\c2ccco2)C(=O)NCCCn2ccnc2)cc1 | inconclusive: 108% |
| OC(c1cccc(OCc2ccccc2)c1)c1nnc(-c2ccccc2)o1 (centres undefined) | inactive: 100% |
| CS(=O)(=O)N(CC(=O)N1CCC(C(N)=O)CC1)c1cc(C(F)(F)F)ccc1Cl | inactive: 103% |
| Cc1ccc(Sc2ncnc3onc(C)c23)c(C)c1 | inconclusive: 95% |
| CCN(CCn1cccn1)Cc1nc(Cc2cccc(F)c2)no1 | inactive: 95% |
| Cc1[nH]c2ccccc2c1CCNC(=O)c1c(N)no[n+]1[O-] | inconclusive: 92% |
| CCOC(=O)N1CCC(N2Cc3cccc(C(=O)Nc4ccc(CC)cc4)c3C2=O)CC1 | inconclusive: 92% |
| Cc1noc(C)c1COc1ccc(C(=O)OCC(=O)NCc2ccccc2Cl)cc1 | inactive: 100% |
| COc1cc(NC(=S)N2CCC(C(O)(c3ccccc3)c3ccccc3)CC2)cc(OC)c1 | inactive: 98% |

| Structure (SMILES) | percent activity (GTP binding) |
| --- | --- |
| CCN1CC(c2ccccc2)C(c2ccc(Cl)cc2)=N1 (centres undefined) | inactive: 97% |
| CC1(C)N=C(c2ccc(Cl)cc2)C(=O)N1 | inconclusive: 108% |
| Cc1cccc(OCCCCc2c(C)n[nH]c2C)c1C | inactive: 103% |
| COc1ccc(N(CC(=O)O)S(=O)(=O)c2ccc(C)cc2)cc1Cl | inconclusive: 94% |
| CCS(=O)(=O)N1CCCC(C(=O)NCCN2CCC(Cc3ccccc3)CC2)C1 (centres undefined) | inconclusive: 102% |
| CCN(CC)S(=O)(=O)c1ccc(Cl)c(NC(=O)COc2ccc3c(C)cc(=O)oc3c2)c1 | inconclusive: 112% |
| O=C(NCc1ccc(Cl)cc1)c1ncn[nH]1 | inactive: 93% |
| COc1ccccc1NS(=O)(=O)c1cc([N+](=O)[O-])ccc1N/N=C/c1sc(N2CCOCC2)nc1-c1ccccc1 | inconclusive: 111% |
| O=C(Nc1nnc(-c2ccc3c(c2)OCCO3)o1)C1CCCCC1 | inactive: 98% |
| O=C(CCN1C(=O)c2ccccc2C1=O)OCn1nnc2ccccc2c1=O | inconclusive: 109% |
| COc1ccc(NC(=O)[C@H](COCc2ccccc2)NC(=O)OC(C)(C)C)cc1 | inconclusive: 106% |
| CCCCc1nc2ccccc2[nH]1 | inconclusive: 93% |
| COCCOC(=O)c1c(C)n(C)c2ccc(OC(=O)c3ccco3)cc12 | inactive: 103% |
| O=C(c1cccs1)N1CCN(S(=O)(=O)c2ccc(F)cc2)CC1 | inconclusive: 92% |
| COc1cc(-c2cc(-c3ccc(O)cc3)nc(N)c2C#N)ccc1O | inconclusive: 66% |
| O=C(N/N=C\C=C\c1ccco1)c1cc(-c2ccc3ccccc3c2)n[nH]1 | inconclusive: 97% |
| O=C1N=C2N(CCN3CCCCC3)c3ccccc3N2/C1=C\c1ccc([N+](=O)[O-])o1 | inconclusive: 95% |
| CCOc1cc(/C=N/NC(=O)c2cccs2)cc([N+](=O)[O-])c1O | inconclusive: 56% |
| O=C(CN(C(=O)CCC(=O)Nc1nccs1)C1CCCC1)NCc1ccc2c(c1)OCO2 | inactive: 97% |
| COc1ccc(Cl)cc1NC(=S)N1CCN(c2ccccn2)CC1 | inconclusive: 95% |
| CC(=O)Nc1ccc(S(=O)(=O)Nc2cccc(NC(=O)C(C)(C)C)c2)cc1 | inconclusive: 102% |
| COc1ccccc1N1C(=O)C2C(c3ccc(F)cc3)NN(C(=O)c3ccc(C)cc3)C2C1=O (centres undefined) | inactive: 96% |
| Cc1noc(C)c1S(=O)(=O)N1CCCC(C(=O)c2cccc(OC(C)C)c2)C1 (centres undefined) | inactive: 95% |
| CCC(C)(C)n1nnnc1C(C(C)C)N1CCN(C)CC1 (centres undefined) | inconclusive: 102% |

| Structure (SMILES) | percent activity (GTP binding) |
| --- | --- |
| O=C(c1ccc(F)cc1)N1CCCCC(S(=O)(=O)c2ccccc2)C1=O (centres undefined) | inactive: 104% |
| OCC1CCN(Cc2nc(Cc3ccccc3Cl)no2)CC1 | inconclusive: 97% |
| C/C(=N\S(=O)(=O)c1ccc(C)cc1)NC(=S)Nc1ccccc1 | inactive: 101% |
| O=C(CC(=O)N/N=C\c1ccc([N+](=O)[O-])cc1)NCCc1ccccc1 | inconclusive: 96% |
| Clc1cccc(Oc2cnc3ccccc3n2)c1 | inconclusive: 105% |
| Cc1ccc(CNC(=O)CCOc2ccc(C(C)(C)C)cc2)cc1 | inconclusive: 106% |
| Nc1nc(-c2ccccc2)c(N=Nc2ccccc2Cl)s1 | inconclusive: 95% |
| CCN(CC)c1ccc(/C=C(/C#N)C(=O)NCc2ccccc2)o1 | inconclusive: 107% |
| CC(=O)OCC(=O)Nc1ccccc1C | inactive: 99% |
| Cc1ccc(NC(=O)C2CCCN(C(=O)c3ccc(Cl)cc3)C2)cc1C (centres undefined) | inconclusive: 94% |
| O=C(Cn1cc(/C=N/NC(=O)c2cccc(C(F)(F)F)c2)c2ccccc21)Nc1ccc(F)cc1 | inconclusive: 99% |
| Cc1c(C=NCCOCc2ccccc2)cnn1C | inconclusive: 105% |
| O=C(CN1CCCCC1)Nc1cccc([N+](=O)[O-])c1 | inconclusive: 111% |
| Cc1cc(O)c(C(C)C)cc1NC(=O)c1ccccc1Cl | inconclusive: 103% |
| Cc1nc(C(=O)NC(C)C)nn1-c1cc(Cl)cc(Cl)c1 | inactive: 98% |
| O=C1CN(C(=O)COC(=O)c2ccccc2NCc2ccco2)c2ccccc2N1 | inconclusive: 94% |
| N#CCc1c(C#N)c(N)nc(N2CCN(C=O)CC2)c1C#N | active: 78% |
| O=S(=O)(c1cccs1)N1CCC(CO)(Cc2cccc(F)c2)CC1 | inactive: 96% |
| COc1ccc(CC(=O)NC(CC(=O)O)c2cccc([N+](=O)[O-])c2)cc1 (centres undefined) | inconclusive: 93% |
| S=C(NCC1COc2ccccc2O1)Nc1ccc(Br)cc1 (centres undefined) | inconclusive: 97% |
| Cc1ccc(/C([O-])=C(/C(=S)NCc2ccco2)[n+]2ccccc2)cc1[N+](=O)[O-] | inactive: 95% |
| O=C(O)c1cc([N+](=O)[O-])ccc1NCc1ccccc1 | active: 172% [activator] |
| Cc1ccc(C2=NN(CCC(=O)NCc3ccc4c(c3)OCO4)C(=O)CC2)cc1 | inconclusive: 146% |
| COc1cc(/C=N/NC(=O)c2nc(-c3ccccc3)n(-c3ccccc3)n2)ccc1O | inconclusive: 99% |

| Structure (SMILES) | percent activity (GTP binding) |
| --- | --- |
| CC(C)Cc1nnc(NC(=O)CCc2c[nH]c3ccccc23)s1 | inconclusive: 93% |
| O=[N+]([O-])c1cc(Br)c(O)c(/C=N/Nc2nc3ccccc3s2)c1 | inconclusive: 90% |
| COc1ccc(NC(=O)N2CCCC2C(=O)NCc2ccc(F)cc2)cc1 (centres undefined) | inconclusive: 103% |
| C=CCNC(=O)c1ccccc1S(=O)c1ccccc1C#N (centres undefined) | inconclusive: 94% |
| O=C(O)c1c(-c2ccc(Cl)cc2)cn2ccccc12 | inactive: 91% |
| O=c1[nH]snc1N1CCOCC1 | inactive: 98% |
| COc1ccc(CN(C)c2nc(-c3cccnc3)nc3ccccc23)cc1OC | inconclusive: 94% |
| COc1ccc2[nH]c3c(NCCC4=CCCCC4)ncnc3c2c1 | inactive: 87% |
| O=C(NC1CCCC1)C(c1ccccc1)N(Cc1cccnc1)C(=O)Cc1cccs1 (centres undefined) | inactive: 99% |
| Cc1ccccc1NC(=O)CN1C(=O)S/C(=C\c2ccc(-c3cc(C(=O)O)ccc3C)o2)C1=O | active: 79% |
| COc1ccc(N/C=C/c2nc(SC)nnc2C)cc1 | active: 67% |
| Oc1ccc(NC(=S)N=Nc2c(O)[nH]c3ccccc23)cc1 | active: 71% |
| CCOc1cc(CO)ccc1OCC(=O)N1CCCCC1 | inconclusive: 100% |
| O=C(COc1ccc(S(=O)(=O)NC2CCCCC2)cc1)NCc1cccnc1 | inconclusive: 92% |
| COc1ccc(N=C2CC(C)(C)CC(=O)/C2=C(/O)c2ccccc2)cc1 | inactive: 96% |
| COC(=O)CNC(=O)c1nn(-c2cccc(OC)c2)c(=O)c2ccccc12 | inconclusive: 102% |
| COc1ccc(-c2nnc3c4ccccc4c(C)nn23)cc1 | inconclusive: 100% |
| CCN(C(=O)COC(=O)c1cccnc1SC)C1CCS(=O)(=O)C1 (centres undefined) | inconclusive: 108% |
| Cc1c(Cc2ccccc2)c(=O)oc2cc(OCc3ccc(C(=O)O)cc3)ccc12 | inconclusive: 90% |
| C/C(=N\NC(=O)CSc1nc2nc(C)cc(C)n2n1)c1ccccc1 | inconclusive: 86% |
| O=c1cc(O)c2sc3nc(C(F)(F)F)c4c(c3c2[nH]1)CCCCC4 | inconclusive: 89% |
| Cc1cccc(CSCCNC(=O)CSCc2ccc([N+](=O)[O-])cc2)c1 | inconclusive: 99% |
